# Reference: the supplement of paper PMC8728848
# Some of the results follow.
# B1: PX14343B-bfa-546-20-546 (Bacteroides fragilis) (protein)
# chain: CDLERYPLTDLSEETFWNSESNAELALTSLYRGSLTDGVEYNPSDWWSYHGMIMMEHLSDNAFDRRGENNPFFKISSGNLTADNAFIKRYWETSYKRIGYCNRFLVGIQNSSESEKKTRMIAEARFLRATQYFYLASYFKNVPLVENVLTGEEANNVTKTSQADILKWCVTEFTAAAADLPRFSAIPAGEAGRACKQAALAFLGRTCMLQKDWKSGAKAFHDIMELGDNAINANYQELFYPSTGTSNKENIFYIQYLENYLGTGLPQHALSAKDGGWSLVNPAADLYESYEFKDGTPFSYDDPRYDPSNLGKDRDPRLDYTIYYNGAIFMGTEYKMSPDYSAAKKEKLDYTSEASRTGFMMRKYFEESTPINDVQSANGLTPVIRYAEVLLGYLECLVEDNQTITQGILDETINAVRGRASVNMPPVTEVTPAKLREIVRHERRIELAMEGIRYWDIMRWGIAHEVLSQKIWGAPYPGSTQYATTTKEVDPTGNYRWYVGKRAFRNPTDYTWPIPQSEQNINPNLRD
# How the values were obtained:
# Experiment in all cases: glycan array binding signal (z-score within array); higher = stronger binding
# Details in all cases: glycan notation: IUPAC condensed, linker removed
# Neu5Ac(a2-8)Neu5Ac = biological target: Neu5Ac(a2-8)Neu5Ac
# Outline: (§1)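 Columns mapping to the same glycan were averaged after glycan names were converted to IUPAC-condensed notation. The data come from 3228 arrays in the Consortium for Functional Glycomics database, limited to those with an available protein sequence. Binding is reported as a within-array Z-score averaged across arrays of one protein sequence and across linkers.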
# [1] = biological target: Neu5Ac(a2-8)Neu5Ac(a2-3)Gal(b1-3)GalNAc(b1-4)[Neu5Ac(a2-3)]Gal(b1-4)Glc
# Outline: as §1
# [2] = biological target: Neu5Ac(a2-8)Neu5Ac(a2-3)Gal(b1-3)GalNAc(b1-4)[Neu5Ac(a2-8)Neu5Ac(a2-3)]Gal(b1-4)Glc
# Outline: as §1
# [3] = biological target: Neu5Ac(a2-8)Neu5Ac(a2-3)Gal(b1-4)Glc
# Outline: as §1
# [4] = biological target: Neu5Ac(a2-8)Neu5Ac(a2-3)Gal(b1-4)GlcNAc
# Outline: as §1
# [5] = biological target: Neu5Ac(a2-8)Neu5Ac(a2-3)[Gal(b1-3)GalNAc(b1-4)]Gal(b1-4)Glc
# Outline: as §1
# [6] = biological target: Neu5Ac(a2-8)Neu5Ac(a2-3)[GalNAc(b1-4)]Gal(b1-4)Glc
# Outline: as §1
# [7] = biological target: Neu5Ac(a2-8)Neu5Ac(a2-8)Neu5Ac
# Outline: as §1
# [8] = biological target: Neu5Ac(a2-8)Neu5Ac(a2-8)Neu5Ac(a2-3)Gal(b1-4)Glc
# Outline: as §1
# [9] = biological target: Neu5Ac(a2-8)Neu5Ac(a2-8)Neu5Ac(a2-3)[Gal(b1-3)GalNAc(b1-4)]Gal(b1-4)Glc
# Outline: as §1
# [10] = biological target: Neu5Ac(a2-8)Neu5Ac(a2-8)Neu5Ac(a2-3)[GalNAc(b1-4)]Gal(b1-4)Glc
# Outline: as §1
# [11] = biological target: Neu5Ac(a2-8)Neu5Ac(a2-8)Neu5Ac(a2-8)Neu5Ac(a2-3)[GalNAc(b1-4)]Gal(b1-4)Glc
# Outline: as §1
# [12] = biological target: Neu5Ac(a2-8)Neu5Gc(a2-3)Gal(b1-4)GlcNAc
# Outline: as §1
# [13] = biological target: Neu5Ac(b2-6)Gal(b1-4)GlcNAc
# Outline: as §1
# Neu5Ac(b2-6)GalNAc = biological target: Neu5Ac(b2-6)GalNAc
# Outline: as §1
# [14] = biological target: Neu5Ac9Ac(a2-3)Gal(b1-3)GlcNAc
# Outline: as §1
# [15] = biological target: Neu5Ac9Ac(a2-3)Gal(b1-4)GlcNAc
# Outline: as §1
# [16] = biological target: Neu5Ac9Ac(a2-6)Gal(b1-4)GlcNAc
# Outline: as §1
# [17] = biological target: Neu5Gc(a2-3)Gal(b1-3)GlcNAc
# Outline: as §1
# [18] = biological target: Neu5Gc(a2-3)Gal(b1-3)[Fuc(a1-4)]GlcNAc
# Outline: as §1
# Neu5Gc(a2-3)Gal(b1-4)Glc = biological target: Neu5Gc(a2-3)Gal(b1-4)Glc
# Outline: as §1
# [19] = biological target: Neu5Gc(a2-3)Gal(b1-4)GlcNAc
# Outline: as §1
# [20] = biological target: Neu5Gc(a2-3)Gal(b1-4)GlcNAc(b1-3)Gal(b1-4)GlcNAc(b1-2)Man(a1-3)[Neu5Gc(a2-3)Gal(b1-4)GlcNAc(b1-3)Gal(b1-4)GlcNAc(b1-2)Man(a1-6)]Man(b1-4)GlcNAc(b1-4)GlcNAc
# Outline: as §1
# [21] = biological target: Neu5Gc(a2-3)Gal(b1-4)[Fuc(a1-3)]GlcNAc
# Outline: as §1
# [22] = biological target: Neu5Gc(a2-6)Gal(b1-4)GlcNAc
# Outline: as §1
# Neu5Gc(a2-6)GalNAc = biological target: Neu5Gc(a2-6)GalNAc
# Outline: as §1
# [23] = biological target: Neu5Gc(a2-8)Neu5Ac(a2-3)Gal(b1-4)GlcNAc
# Outline: as §1
# [24] = biological target: Neu5Gc(a2-8)Neu5Gc(a2-3)Gal(b1-4)GlcNAc
# Outline: as §1
# [25] = biological target: Neu5Gc(a2-8)Neu5Gc(a2-3)Gal(b1-4)GlcNAc(b1-3)Gal(b1-4)GlcNAc
# Outline: as §1
# [26] = biological target: Neu5Gc(a2-8)Neu5Gc(a2-6)Gal(b1-4)GlcNAc
# Outline: as §1
# [27] = biological target: Neu5Gc(b2-6)Gal(b1-4)GlcNAc
# Outline: as §1
binder,measurement,setting,value
B1,glycan array binding signal (z-score),Neu5Ac(a2-8)Neu5Ac,-0.11
same,glycan array binding signal (z-score),[1],-0.129
same,glycan array binding signal (z-score),[2],-0.12
same,glycan array binding signal (z-score),[3],-0.13
same,glycan array binding signal (z-score),[4],-0.135
same,glycan array binding signal (z-score),[5],-0.112
same,glycan array binding signal (z-score),[6],-0.131
same,glycan array binding signal (z-score),[7],-0.131
same,glycan array binding signal (z-score),[8],-0.118
same,glycan array binding signal (z-score),[9],-0.123
same,glycan array binding signal (z-score),[10],-0.126
same,glycan array binding signal (z-score),[11],-0.118
same,glycan array binding signal (z-score),[12],-0.126
same,glycan array binding signal (z-score),[13],-0.116
same,glycan array binding signal (z-score),Neu5Ac(b2-6)GalNAc,-0.112
same,glycan array binding signal (z-score),[14],-0.124
same,glycan array binding signal (z-score),[15],-0.12
same,glycan array binding signal (z-score),[16],-0.13
same,glycan array binding signal (z-score),[17],-0.117
same,glycan array binding signal (z-score),[18],-0.115
same,glycan array binding signal (z-score),Neu5Gc(a2-3)Gal(b1-4)Glc,-0.129
same,glycan array binding signal (z-score),[19],-0.122
same,glycan array binding signal (z-score),[20],-0.129
same,glycan array binding signal (z-score),[21],-0.113
same,glycan array binding signal (z-score),[22],-0.098
same,glycan array binding signal (z-score),Neu5Gc(a2-6)GalNAc,-0.114
same,glycan array binding signal (z-score),[23],-0.128
same,glycan array binding signal (z-score),[24],-0.122
same,glycan array binding signal (z-score),[25],-0.088
same,glycan array binding signal (z-score),[26],-0.114
same,glycan array binding signal (z-score),[27],-0.109
